# Where a name gives a salt, the structure may show the parent alone. ± gives the standard deviation of the averaged measurements. Some of the results follow.
# What was measured:
# Settings in all cases: priming compound concentration 100 µM
# hAMSC donor 1 [1] = assay: Hoechst total cell count ratio vs vehicle control; higher = more cells (less toxicity)
# hAMSC donor 2 [2] = assay: as above
# hAMSC donor 1 [3] = assay: transgenic luciferase activity (RLU/mg protein) fold change vs vehicle control (ratio); higher = more transgene expression
# hAMSC donor 1 [4] = assay: transfection efficiency (EGFP+ cells / Hoechst count) fold change vs vehicle control (ratio); higher = enhanced transfection
# hAMSC donor 2 [5] = assay: as above
# hAMSC donor 2 [6] = assay: transgenic luciferase activity (RLU/mg protein) fold change vs vehicle control (ratio); hAMSC are human adipose-derived mesenchymal stem cells given an EGFP-luciferase plasmid by lipofection; higher = more transgene expression
# 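Wherever Hoechst total cell count ratio vs vehicle control is given: compound added 30 min before Lipofectamine 3000 lipoplex delivery, triplicate-well means expressed against DMSO vehicle control wells of the same 96-well plate.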
# 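Wherever transfection efficiency (EGFP+ cells / Hoechst count) fold change vs vehicle control is given: compounds added 30 min before Lipofectamine 3000 lipoplex transfection, triplicate means relative to DMSO vehicle wells on the same plate, luciferase RLU normalized to BCA total protein.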
# 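Wherever transgenic luciferase activity (RLU/mg protein) fold change vs vehicle control is given: compounds in DMSO added 30 min before Lipofectamine 3000 transfection of pEGFP-Luc in 96-well plates, values are means of triplicate wells over DMSO vehicle wells on the same plate.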
Structure (SMILES),Hoechst total cell count ratio (hAMSC donor 1 [1]),Hoechst total cell count ratio (hAMSC donor 2 [2]),transgenic luciferase activity (hAMSC donor 1 [3]),transfection efficiency (hAMSC donor 1 [4]),transfection efficiency (hAMSC donor 2 [5]),transgenic luciferase activity (hAMSC donor 2 [6])
Cc1cccc(Nc2ccccc2C(=O)O)c1C [Mefenamic acid],1.2 ± 0.07,1.12 ± 0.16,1.11 ± 1.1,1.13 ± 0.062,1.01 ± 0.18,
COC(=O)C[C@](O)(CCCC(C)(C)O)C(=O)O[C@@H]1C(OC)=C[C@]23CCCN2CCc2cc4c(cc2[C@H]13)OCO4 [Homoharringtonine],0.518 ± 0.15,0.15 ± 0.041,0.0142 ± 0.011,0.338 ± 0.22,0.0857 ± 0.15,
C[n+]1ccccc1/C=N/O [Pralidoxime chloride],1.19 ± 0.16,1.22 ± 0.018,0.583 ± 0.073,0.839 ± 0.28,0.861 ± 0.11,
O=C1CCc2cc(OCCCCc3nnnn3C3CCCCC3)ccc2N1 [Cilostazol],1.37 ± 0.051,1.79 ± 0.17,0.937 ± 0.082,0.815 ± 0.18,0.747 ± 0.15,
Cc1c(C(=O)NN2CCCCC2)nn(-c2ccc(Cl)cc2Cl)c1-c1ccc(I)cc1,,,0.13 ± 0.078,0.532 ± 0.059,0.771 ± 0.074,0.499 ± 0.28
O=C1CCC(N2C(=O)c3ccccc3C2=O)C(=O)N1 (stereo not drawn) [Thalidomide],1.49 ± 0.12,0.774 ± 0.1,0.905 ± 0.54,1.23 ± 0.018,0.845 ± 0.1,
Cc1cccc(CCN2CCC(C(=O)c3ccc(NS(C)(=O)=O)cc3)CC2)n1 [E-4031 dihydrochloride],,,1.02 ± 0.14,1.29 ± 0.038,0.724 ± 0.068,0.721 ± 0.19
CN(C)[C@@H]1C(O)=C(C(N)=O)C(=O)[C@@]2(O)C(O)=C3C(=O)c4c(O)cccc4[C@@](C)(O)[C@H]3[C@H](O)[C@@H]12 [Oxytetracycline hydrochloride],1.37 ± 0.064,1.2 ± 0.28,0.537 ± 0.1,0.666 ± 0.051,0.536 ± 0.11,
COc1cccc2c1C(=O)c1c(O)c3c(c(O)c1C2=O)C[C@@](O)(C(C)=O)C[C@@H]3O[C@H]1C[C@H](N)[C@H](O)[C@H](C)O1 [Daunorubicin hydrochloride],0.000667 ± 0.00058,0.000667 ± 0.0011,0.0576 ± 0.084,,2.14 ± 3.7,0.000786 ± 0.00011
Cc1cn([C@H]2C[C@H](N=[N+]=[N-])[C@@H](CO)O2)c(=O)[nH]c1=O [Zidovudine],1.16 ± 0.062,1.2 ± 0.33,1.99 ± 1.1,1.49 ± 0.14,1.11 ± 0.2,
O=C(C1CCCCC1)N1CC(=O)N2CCc3ccccc3C2C1 (stereo not drawn) [Praziquantel],1.25 ± 0.17,1.05 ± 0.054,0.534 ± 0.12,1.16 ± 0.15,0.88 ± 0.043,
CN1[C@@H]2CC[C@H]1C[C@@H](OC(=O)c1c[nH]c3ccccc13)C2 [Tropisetron hydrochloride],1.42 ± 0.18,1.06 ± 0.14,0.231 ± 0.083,0.854 ± 0.11,0.772 ± 0.077,
COc1c2occc2cc2ccc(=O)oc12 [Methoxsalen],1.66 ± 0.14,1.39 ± 0.29,0.492 ± 0.27,1.14 ± 0.22,0.671 ± 0.19,
